Over roughly 33,000 sequences, “E-score (-0.5 to 0.5)” has its median near -0.012; the highest 2% begin near 0.29. This is one part of the list.
target: T1, Ybr033w (UniProt P38073); assay: PBM E-score (8-mer binding enrichment) (E-score (-0.5 to 0.5)); higher = stronger / more preferred TF binding; most listed sequences are background and not binding sites; settings: protein concentration: 200 nM; construct: GST-full length
T1 sequence: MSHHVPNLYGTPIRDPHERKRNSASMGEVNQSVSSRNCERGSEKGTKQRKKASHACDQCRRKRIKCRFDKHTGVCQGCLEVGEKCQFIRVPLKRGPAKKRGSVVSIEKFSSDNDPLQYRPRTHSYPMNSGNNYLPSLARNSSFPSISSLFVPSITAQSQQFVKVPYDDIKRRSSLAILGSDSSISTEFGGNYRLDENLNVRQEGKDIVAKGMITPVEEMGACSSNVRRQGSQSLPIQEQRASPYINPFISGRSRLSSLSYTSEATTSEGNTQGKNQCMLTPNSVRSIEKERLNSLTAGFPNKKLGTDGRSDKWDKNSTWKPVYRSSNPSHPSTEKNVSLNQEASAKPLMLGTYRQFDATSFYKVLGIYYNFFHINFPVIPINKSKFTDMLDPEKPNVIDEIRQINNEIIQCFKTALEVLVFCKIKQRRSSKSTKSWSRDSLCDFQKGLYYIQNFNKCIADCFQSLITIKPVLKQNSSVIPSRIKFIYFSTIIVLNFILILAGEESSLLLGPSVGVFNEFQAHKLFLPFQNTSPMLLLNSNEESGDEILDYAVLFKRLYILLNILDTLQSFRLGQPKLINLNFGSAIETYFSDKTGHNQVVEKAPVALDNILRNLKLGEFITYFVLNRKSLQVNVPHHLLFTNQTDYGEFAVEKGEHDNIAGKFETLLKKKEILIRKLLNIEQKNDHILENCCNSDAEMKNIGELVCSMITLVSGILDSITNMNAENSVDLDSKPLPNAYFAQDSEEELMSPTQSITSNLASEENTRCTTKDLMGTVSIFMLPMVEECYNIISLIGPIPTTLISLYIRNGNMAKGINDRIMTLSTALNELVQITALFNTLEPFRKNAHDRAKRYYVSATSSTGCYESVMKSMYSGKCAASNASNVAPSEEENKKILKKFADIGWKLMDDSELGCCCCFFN
Method: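 Universal 'all 10-mer' protein binding microarrays (Agilent AMADID 015681) probed with GST-tagged S. cerevisiae TFs (full-length or DBD) made by in vitro transcription/translation (PURExpress), about 100-200 nM. Bound TF was detected with fluorescent anti-GST. Each ungapped 8-mer (which stands for itself and its reverse complement) is scored by the PBM enrichment score (E-score), a modified Wilcoxon-Mann-Whitney statistic from -0.5 to +0.5, computed with the Universal PBM Analysis Suite. Scale: above 0.35 generally sequence-specific binding.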

Sequence	PBM E-score
AGGTGGTC	-0.117
ATATGCAC	0.183
ATCGTTGG	0.211
AAGTATCA	0.209
GCGATAGA	0.00283
ACCTGAGG	-0.0879
AAGATTAC	0.101
CCGCGAAA	-0.0982
CAAAGCTA	0.185
ACGCCAAA	-0.0683
ACTTAATA	0.271
AGCCGTGC	-0.216
GGATTGAC	-0.00155
CCACACGG	-0.277
ATGCGGAA	0.231
GTCGTACA	0.184
GAGATTTA	0.0395
CGGCACAG	-0.0198
AACACTAC	0.181
CACTATGC	0.136
AGAATCGC	0.0743
GACGATAA	0.00917
AGCGGCAT	0.0383
CTTAATGA	-0.0192
AAATTTAT	0.228

Sequence	PBM E-score
CCGACTAG	-0.146
TTCACCAA	0.086
GCATTTCC	0.0973
GTCCAGGA	-0.0504
AATCACGG	0.24
GATCTTCC	0.33
AGTATCAC	0.0458
ATGAGGAG	-0.192
AGAAGCCA	-0.0283
ATCGATGC	0.0782
CCCGTCAC	-0.221
AGCATACC	0.0272
CAGGCATC	0.00941
CCAAAAGC	-0.0545
AGGATTAT	0.306
ATCGAACC	-0.0406
ACAACTCG	-0.0646
ACAGTACC	-0.143
CGGATGGA	-0.0883
GCCTTATA	0.00805
AATGATCT	0.157
AATATGTG	0.269
CCTTATAA	0.147
CGTCAAAG	-0.0726
CGAAAACG	-0.0689

Sequence	PBM E-score
CATTCATC	0.0344
GTGTGGGA	0.0268
TCAGCGGA	0.0186
CATTTACC	0.125
AGCATGAG	-0.0716
CGTTTCAG	0.0643
CACAGTCA	-0.0243
ACGTACCC	-0.114
GCGCCAGC	-0.274
CAACCAGC	-0.122
ATCCCGGA	0.123
ACAGGGGG	-0.359
AAATGGAT	0.148
CGAGTATC	-0.0724
CCGGTTGA	-0.00715
ATTTCTCG	0.281
GGGGATTA	0.0655
TGCAAAAA	0.165
ATCGTGGC	-0.0454
AGGAGCGC	-0.0933
GGCTGATA	0.032
GAATTACC	0.139
GGCTGCCC	-0.25
GTACGGAC	-0.157
ACGAGCGG	-0.241

Sequence	PBM E-score
AGACGACC	-0.0861
AATTCTCA	0.204
AGCGACCT	-0.107
GCTAGTCC	-0.205
AAAGAAAG	0.0859
AATAGCAT	0.128
AGCTCTGA	-0.0863
GAAGTTCA	0.189
AACCGCGC	0.0308
ACTTTCGC	-0.0392
AACCAGGT	-0.174
AGGGCCGC	-0.374
GAAACAAA	0.222
CTAGCTAG	0.0853
CGATGCGA	0.0151
AGGTGGAG	-0.111
TGTACTAA	0.201
GCGACGCA	-0.0592
GCGTGGAC	-0.164
CGTGTCTA	0.0255
ACCATGGA	-0.0893
ACGCGAAC	-0.151
GAAATACA	0.14
GTGGTCAA	0.00743
CGAGATAC	0.0579

Sequence	PBM E-score
AGTGGGCA	-0.0199
AGTCCACC	-0.0107
CTCTGGGA	-0.229
AAGAAGAG	0.0947
GATCAATA	0.329
ATAATTCG	0.294
CAAGTAGC	-0.145
CGTCCACG	-0.133
AGCTTTTA	0.138
CGGGCTAC	-0.144
CTAACTGA	0.116
TATGAGAA	0.192
AGGAACAT	0.399
AGAAACTA	0.0869
CTCAGCTA	-0.0505
ACGTACCT	-0.0619
CCTCACGC	0.0249
CAATTCAC	0.175
TGAGCACA	-0.124
AATTCCGT	0.312
CCCCGACA	-0.282
ACGCATGA	0.00159
CGGTGCAA	-0.101
ACCAAGTC	0.139
CTCACCAG	-0.149

Sequence	PBM E-score
TGCCGCAA	0.0451
GCACAGGC	-0.136
CAGACGGC	-0.197
AGCAGGCG	-0.135
CGGGCCGC	-0.261
GACGTTGA	0.123
AACATTAG	0.126
TACAAAAA	0.145
CGTGACTC	-0.234
ATCAAAAA	0.27
GATATCCA	0.184
CGTCACAC	-0.107
CAGCAGGG	-0.292
CCCTCCAC	-0.0931
ACGGGTCC	-0.338
ACAACTGG	-0.0203
TTCTAGAA	0.102
ACATCTCA	0.181
ATTACCAG	0.0201
ATAAGACG	0.0366
TATCCTGA	0.167
ACCGCGCG	0.0302
TCGCTTAA	0.0307
AAAGTGTA	-0.0339
TTGAACAA	0.0558

Sequence	PBM E-score
AGACCGTA	-0.0802
CAAGGATC	0.0245
CCCGGCAG	-0.2
GACCTCGA	0.00169
ATCCGTGA	-0.00293
ATCTAAGG	0.00166
ACCTAACG	-0.069
ATGCGTGG	-0.346
ACTAGATC	-0.0476
AGGCCCGA	-0.162
ATTTATCA	0.246
TGATTGAA	0.117
CTCGTAAA	-0.0763
CATGTTTC	0.196
ACGAAAGA	0.209
CTCACTTA	0.0375
ATGACGCG	-0.0139
AACTGTCC	-0.158
CACGTGGA	0.0427
CGCCCTAG	-0.166
CACTTAGA	0.18
CGTTACAA	0.0792
